Laboratory results: the RNAGym collection of RNA variant scans (doi:10.1093/nar/gkz1192)
Read counts are not given, so values of variants with three or more changes are uncertain.

B1: CPEB3 Ribozyme (parent)
chain: UAACAGGGGGCCACAGCAGAAGCGUUCACGUCGCAGCCCCUGUCAGAUUCUGGUGAAUCUGCGAAUUCUGCUGUAUAUCUC

Variants of: B1
Test: self-cleavage, relative activity (ratio to wild type); higher = more cleavage; in vitro, sequencing
Procedure, shortened: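 CPEB3 self-cleaving ribozyme mutant libraries were made by rounds of error-prone PCR, barcoded, and transcribed in vitro with T7 RNA polymerase for 5 hours at 37°C. Cleavage occurred during transcription and a 15 min DNase I step before EDTA stop. RNAs were reverse transcribed with template switching and Illumina-sequenced, with DNA sequencing mapping barcodes to variants. Relative activity is the variant's cleaved/total read fraction divided by wild type's (minimum 5 reads), averaged across three batches.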

| Variant | self-cleavage |
| --- | --- |
| G19U A20G U51C | 0.35 |
| G19A A28G U60C | 0.09 |
| A20G C27G U48C U51A | 0.14 |
| G19U A21G A57G U67C | 0.1 |
| A18U U54C U72C U80C | 0.36 |
| A18U A20U A56G A77G | 0.05 |
| A20G A28G U58A U69A | 0.08 |
| A18U U31C A77G | 0.18 |
| A18U U51A A57G | 0.26 |
| A20G A21G A56G U67C U69A | 0.14 |
| A18U A28G A35U A77G | 0.24 |
| A18U A20U A28U U67G | 0.08 |
| A18U A28U U51A U58C A65U U69A | 0.23 |
| A18U A35U U48C A75G | 0.03 |
| A18U U26A A45G U66C U80A | 0.11 |
| A20G A28G G33U A45G | 0.15 |
| G19U A47U U54C A77G | 0.04 |
| A18U G22U A47G U54C A56G A75G | 0.09 |
| A20G A28G A57G | 0.28 |
| A20G A35U U43C A45G U54C | 0.11 |
| A20G A28U A64G U72C | 0.21 |
| A18U A56G U58C A65G U69A | 0.07 |
| A18U U41C U51A | 0.26 |
| A20G A45U A75G | 0.21 |

| Variant | self-cleavage |
| --- | --- |
| G19A U67G U80A | 0.13 |
| A20C U31C A65G | 0.41 |
| A18U U41A U51A U54C | 0.15 |
| A18U U31G A57U A64G | 0.13 |
| A18U A28G U69G | 0.92 |
| A18U G22A C32U U60C U67C A75U U76G | 0.04 |
| A18U G19U A45U G61C U66A | 0.12 |
| A18U A20U G52U | 0.15 |
| A20G A45G U58C U67C | 0.27 |
| A18U A21G U31C U60C | 0.14 |
| A20G A21G A28C C50A A56G | 0.19 |
| G19A C27A U31C U41C U43C | 0.17 |
| A18U A28U U78C | 0.21 |
| G19A A20C A21G U41C U51C C62U | 0.19 |
| A20G A28U G42A U54G A64U | 0.19 |
| A18U A35U A45G U74G U80C | 0.13 |
| G19U U26C U72C | 0.4 |
| A20G A21G U26C U48C U58C U60A U78A | 0.03 |
| A18U C29A A35G G55U A56C U76C | 0.13 |
| A20C U43C A64U U69A | 0.07 |
| A18U A21U U43C U58C | 0.14 |
| A18U G19A G33U U72A | 0.03 |
| A18U A47G A57G A64U U67C | 0.08 |
| A20G A21G A35G G42U U67A | 0.04 |

| Variant | self-cleavage |
| --- | --- |
| G19C G52U U69C U72C | 0.13 |
| G19A C32U C34U A57G A75U | 0.08 |
| A20G A47G U78C | 0.81 |
| G19C U43C A57G U69C | 0.12 |
| G19U A21G U54G G55U U76A | 0.11 |
| A18U A21G A56G A64U | 0.28 |
| A20G C27G A28U | 0.27 |
| A20G C23U A28G U54A A77G | 0.06 |
| G19U U31C A45G U54C U66C | 0.2 |
| G19U A20C A77G | 0.22 |
| A18U U26A A57G U60C U66C U72C | 0.16 |
| A20G A65G A77G U78A | 0.27 |
| A20C U25C A56U A65G | 0.24 |
| A18U C44U U60C | 0.04 |
| A18U C44U U60A | 0.28 |
| G19U U26C A75U | 0.28 |
| G19A C44A A75U | 0.08 |
| G19C A21U A56U U76A U78C | 0.15 |
| A18U C40U U67C U69A | 0.26 |
| A20G A28G U43A A45G U48C U60C | 0.06 |
| A18U U41C A56G A57G U60A | 0.49 |
| A18U C23U A45G A47G A57U | 0.04 |
| A20C U26C U31A C44U U48A G63A | 0.04 |
| A20G A28U A45G | 0.6 |

| Variant | self-cleavage |
| --- | --- |
| A18U C29A U54C A57U U69A U78C | 0.1 |
| A18U U41G U54C | 0.2 |
| A20G C29A A56G U58C | 0.23 |
| A20G A47G U54C U74A A77G | 1.03 |
| A18U G33C U43A A56G C81A | 0.26 |
| A18U U25C C59G A65G U72A | 0.06 |
| A18U U49C U74A | 0.23 |
| A20C C40A U80C | 0.1 |
| A18U C34G U60C C81A | 0.12 |
| A18U U26C G63C U78G | 0.16 |
| A20G A28C A57U | 0.18 |
| A18U G24U U25G A45U U58A U66C U69A | 0.03 |
| A18U U26C C37A U60C | 0.16 |
| A18U G36A U48A U51C | 0.05 |
| G19A A21G U26C U80C | 0.38 |
| A18U U25C U41A U54C | 0.2 |
| A20G A28G U72A | 0.33 |
| A18U U25C A28G A35G U48C U51C U66C | 0.11 |
| A20C U41A A45G A64U | 0.24 |
| A18U A45U A47G | 0.17 |
| A20G A21U U67C U80C | 0.28 |
| A18U U31C A47G A64U C81A | 0.1 |
| A20G A28G C29U | 0.44 |
| A18U U25C A65G U66C | 0.27 |

| Variant | self-cleavage |
| --- | --- |
| G19U U25C U41A | 0.14 |
| A18U U51C U54A A64G U67A U76C | 0.21 |
| A18U G19U U58A | 0.17 |
| G19U A47G A57U U72G | 0.12 |
| A18U A28U U58C A65U | 0.17 |
| A20G A47G A64G | 0.54 |
| A20G A56G A57G U78C | 0.14 |
| A18U A28U U66C | 0.18 |
| A18U A28G U67G | 0.11 |
| A18U U26C U41C U78A | 0.11 |
| G19C A21G A35U U54C | 0.19 |
| A18U U49C U51A U69A | 0.85 |
| G19U U66C U76C | 0.21 |
| A20G C27U U54A C68A U78C | 0.15 |
| G19U U41A A47G A64U | 0.18 |
| A20G C23A A56U | 0.06 |
| A18U U49A U60C C79U | 0.25 |
| A20G A21G G36A U78C | 0.3 |
| A20C U41G U72A | 0.35 |
| G19A U41A U58C U60C U76A | 0.08 |
| A18U A65U U80C | 0.22 |
| A20C A21G C40A | 0.38 |
| A20G A28G U48A U60C | 0.18 |
| A18U G22U U25A U41A A75C | 0.08 |

| Variant | self-cleavage |
| --- | --- |
| G19C U66C A75G U76C | 0.13 |
| A18U A65U U66C | 0.18 |
| A20G A28C U31A G52A G63A U80C | 0.1 |
| A20G A21G U72A | 0.29 |
| A18U U25A C37U U69C | 0.06 |
| A18U A20G U41C C79U | 0.24 |
| G19U U43A A45U A47C U72A | 0.08 |
| A20G A35G C44A A77G | 1.06 |
| A20G A28G U41C A57G | 0.28 |
| A18U G70A U72C | 0.4 |
| A20G A21G A35U A45G | 0.18 |
| A18U A47G C68A | 0.34 |
| A18U A28G U66C | 0.18 |
| G19U A47G G63U U74C | 0.33 |
| G19C A21G G30U A64G G70A | 0.11 |
| A20G A28C U54C A64U A65G | 0.36 |
| A18U U51A U76C | 0.6 |
| A18U G24A U31A C50G A56G | 0.08 |
| A20C C37U C39A A45G | 0.06 |
| A18U U43C G61A | 0.12 |
| A18U U25C U58C A77U | 0.2 |
| G19U U58C U78G | 0.35 |
| A20G A28G U51C U69C | 0.11 |
| A18U A28U U31A A64U | 0.15 |

| Variant | self-cleavage |
| --- | --- |
| G19U A28G A35U U74C | 0.11 |
| A18U U25C U43A C59U A64C | 0.12 |
| A18U A28G A35G | 0.42 |
| A20C U25C U67A U80A | 0.09 |
| A20G A35G U41A C50A G70A U72A U78C | 0.03 |
| A18U U26G A35G A77U | 0.76 |
| A18U U25C U41C U51C A56G | 0.39 |
| A18U G53A A65U | 0.12 |
| A18U A45G C71U | 0.07 |
| A18U U26C A28G U43C | 0.13 |
| A18U U26C G33A U54C G70C U78C | 0.08 |
| A20G A28G A35G U72G | 0.94 |
| A18U A20U U48C | 0.18 |
| A20G A57G A65G U66C | 0.41 |
| A18U U41A U78C | 0.11 |
| G19A U51A U58A U66A | 0.37 |
| A20G A28G C29A U31G A47G | 0.03 |
| G19A A28U A57G C71A U80C | 0.09 |
| A18U A20U C29U | 0.15 |
| A18U U25C U67C U69C | 0.12 |
| A18U U25C A47G | 0.08 |
| G19A U26C U51C | 0.17 |
| A18U U25C A45G A47G A56U | 0.1 |
